Binding data for two molecules are collected here from paper PMC4256259.

Results are given in words; binding and its absence hold for the method and conditions named. In cells and extracts the contact can be indirect. Some binding calls cover weakened binding; strength is not graded here. Sequences can lack the tags named with a protein.

Experiment [1] has as its target T1, Ltv1-GFP (S. cerevisiae) (UniProt P34078).
T1 sequence: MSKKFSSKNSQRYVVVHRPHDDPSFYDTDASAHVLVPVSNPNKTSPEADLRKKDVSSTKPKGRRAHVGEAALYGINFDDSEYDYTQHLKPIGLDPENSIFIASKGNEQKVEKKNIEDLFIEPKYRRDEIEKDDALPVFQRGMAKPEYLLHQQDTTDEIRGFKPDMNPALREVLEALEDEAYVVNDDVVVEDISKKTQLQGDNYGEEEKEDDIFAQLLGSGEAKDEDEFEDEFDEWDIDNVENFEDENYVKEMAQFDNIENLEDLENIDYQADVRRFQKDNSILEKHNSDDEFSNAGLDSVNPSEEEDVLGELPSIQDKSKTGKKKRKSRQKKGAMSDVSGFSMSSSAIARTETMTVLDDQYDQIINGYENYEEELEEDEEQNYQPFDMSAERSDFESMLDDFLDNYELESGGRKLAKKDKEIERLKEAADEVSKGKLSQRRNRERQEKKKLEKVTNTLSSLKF
Put plainly: co-IP; GFP-tagged baits purified with GFP-Trap from yeast cell lysates in IP buffer (20 mM Tris-HCl pH 7.5, 5 mM MgCl2, 150 mM potassium acetate, 1 mM DTT, 0.2% Triton X-100); no RNase A; endogenous Rrp12 detected by Western blot.

In the next experiment the target is T2, Nob1-GFP (S. cerevisiae) (UniProt Q08444).
T2 sequence: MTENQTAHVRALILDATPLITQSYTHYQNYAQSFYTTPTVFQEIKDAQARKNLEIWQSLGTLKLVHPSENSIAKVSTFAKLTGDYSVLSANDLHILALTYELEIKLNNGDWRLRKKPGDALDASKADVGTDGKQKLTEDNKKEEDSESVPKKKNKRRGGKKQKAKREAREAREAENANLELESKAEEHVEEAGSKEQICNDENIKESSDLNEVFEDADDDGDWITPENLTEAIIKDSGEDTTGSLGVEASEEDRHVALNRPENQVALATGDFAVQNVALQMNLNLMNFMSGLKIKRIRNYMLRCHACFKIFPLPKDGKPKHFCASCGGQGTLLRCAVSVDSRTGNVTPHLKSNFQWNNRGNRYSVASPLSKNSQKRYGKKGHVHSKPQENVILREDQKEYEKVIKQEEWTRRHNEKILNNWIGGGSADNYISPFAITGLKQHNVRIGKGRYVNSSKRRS
Described as above.

A further experiment has as its target T3, Rix1-GFP (S. cerevisiae) (UniProt P38883).
T3 sequence: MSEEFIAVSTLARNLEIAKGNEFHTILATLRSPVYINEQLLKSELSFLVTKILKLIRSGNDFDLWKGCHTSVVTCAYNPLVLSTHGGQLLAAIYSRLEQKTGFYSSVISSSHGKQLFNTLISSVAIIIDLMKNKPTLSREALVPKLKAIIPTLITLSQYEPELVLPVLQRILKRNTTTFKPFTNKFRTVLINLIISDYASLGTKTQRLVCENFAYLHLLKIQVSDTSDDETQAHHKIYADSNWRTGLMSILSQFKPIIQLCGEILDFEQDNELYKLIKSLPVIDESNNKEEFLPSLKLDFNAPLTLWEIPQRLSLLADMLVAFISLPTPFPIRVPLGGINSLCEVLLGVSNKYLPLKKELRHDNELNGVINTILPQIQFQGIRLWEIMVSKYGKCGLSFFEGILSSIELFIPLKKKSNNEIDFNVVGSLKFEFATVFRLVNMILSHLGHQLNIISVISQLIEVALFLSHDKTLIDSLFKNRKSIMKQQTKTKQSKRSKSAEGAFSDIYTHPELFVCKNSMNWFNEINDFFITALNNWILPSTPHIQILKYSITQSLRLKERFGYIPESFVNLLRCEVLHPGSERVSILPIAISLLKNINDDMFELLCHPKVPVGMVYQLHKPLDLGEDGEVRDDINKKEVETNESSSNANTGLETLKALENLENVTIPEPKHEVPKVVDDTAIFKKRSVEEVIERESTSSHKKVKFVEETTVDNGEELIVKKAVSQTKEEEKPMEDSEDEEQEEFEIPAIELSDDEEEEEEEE
The experiment is described as above.

The next experiment concerns the target T4, Ssf1-GFP (S. cerevisiae) (UniProt P38789).
T4 sequence: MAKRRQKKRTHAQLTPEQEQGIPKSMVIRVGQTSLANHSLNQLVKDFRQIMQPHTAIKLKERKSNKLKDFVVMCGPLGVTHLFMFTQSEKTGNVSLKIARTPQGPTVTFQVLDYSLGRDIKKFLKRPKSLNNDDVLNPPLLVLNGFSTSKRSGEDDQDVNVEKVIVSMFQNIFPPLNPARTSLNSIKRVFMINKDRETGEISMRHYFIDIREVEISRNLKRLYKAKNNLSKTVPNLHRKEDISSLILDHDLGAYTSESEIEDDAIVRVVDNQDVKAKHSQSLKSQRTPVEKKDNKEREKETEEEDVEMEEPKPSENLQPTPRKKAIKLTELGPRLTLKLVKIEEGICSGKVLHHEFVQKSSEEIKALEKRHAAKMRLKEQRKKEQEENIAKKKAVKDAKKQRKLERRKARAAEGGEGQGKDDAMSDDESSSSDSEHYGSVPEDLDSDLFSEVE
Described as above.

The target of experiment [2] is T1, Ltv1-GFP (S. cerevisiae). Put plainly: co-IP; as a1, with RNase A in the cell lysates.
A further experiment deals with T5, Tsr1-GFP (S. cerevisiae) (UniProt Q07381).
T5 sequence: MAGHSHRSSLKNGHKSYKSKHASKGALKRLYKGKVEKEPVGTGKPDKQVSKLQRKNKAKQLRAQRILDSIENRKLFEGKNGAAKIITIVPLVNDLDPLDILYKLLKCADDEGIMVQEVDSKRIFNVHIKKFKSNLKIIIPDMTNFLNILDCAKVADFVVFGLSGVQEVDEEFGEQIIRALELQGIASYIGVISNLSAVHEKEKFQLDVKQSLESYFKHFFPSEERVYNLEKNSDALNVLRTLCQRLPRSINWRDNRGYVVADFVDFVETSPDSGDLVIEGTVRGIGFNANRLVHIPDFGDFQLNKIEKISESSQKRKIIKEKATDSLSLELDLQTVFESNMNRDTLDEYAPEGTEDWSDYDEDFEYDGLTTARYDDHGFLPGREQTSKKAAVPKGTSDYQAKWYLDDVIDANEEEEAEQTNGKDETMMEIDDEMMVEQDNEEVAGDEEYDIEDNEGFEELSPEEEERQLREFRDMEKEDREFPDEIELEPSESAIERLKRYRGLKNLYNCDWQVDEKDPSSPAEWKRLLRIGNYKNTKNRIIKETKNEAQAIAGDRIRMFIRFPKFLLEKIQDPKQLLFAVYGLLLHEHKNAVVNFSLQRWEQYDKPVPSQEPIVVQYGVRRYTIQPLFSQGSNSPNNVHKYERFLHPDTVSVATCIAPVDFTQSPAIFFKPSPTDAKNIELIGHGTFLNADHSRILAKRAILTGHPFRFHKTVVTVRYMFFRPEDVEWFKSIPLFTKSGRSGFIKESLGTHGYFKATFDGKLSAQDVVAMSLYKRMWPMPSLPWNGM
Put plainly: co-IP; Tsr1-GFP purified with GFP-Trap from yeast lysates, in the presence and absence of Rrp12 (GAL::HA-rrp12 depletion); Mex67 detected by Western blot.

B1: Rrp12 (endogenous) (protein, UniProt Q12754 1-1228)
chain: MDQDKVAFLLELEDKLAKIRSQVNSKLENQKHIAIILTAVEENIAGQATNDVSKNIVNYIISFMSLLDQAVDPSTHEIKDIQLASSSTYLLDLIFHYSPKVLLRSKFSEILTKIAPCITAEKANAPLIRAAIGCLESLLIAQDAQAWNNTYDLNVTPKRGLQGILELSLDVRPKVRKRALDAVHAVLLNPPVAPTAEHVAAVFVADFCDKQLAGILNDLSNLSNKQLKAQKTKEDINASVMRSLRLITSVVSTGQWPSSQIEPLCDVLLGVTKSSEQYLVSASFECFESMFKTMAETTISSGLAENKYLRVLDTIFALKPSNVDTLLTKSWIAVVIKGMSTYATHQPLKALRKIPGVFHIMCTYLASETPEVYQAASQCLISILSESVKDDLLLYTPSVDEKVFKNVDEIISQIAKTFIDFLSIRYSHCSREILKILVAAFNKFRYRSNPHFLKSLKIVDTWRVNEEQFMDLRNEIELVIGASISAMGPEMILAEAPLNLDNPSSERPGRAWLLPLIRDYTKNANLATFQNELAPYIKSFQSKFDKVPEESIQLRVFQTIVDQIWSTLPRFCELPMDLRESFTDEFASELSSLLYSEVELRTTICHALKVLAESNVSYAEESSSHNVLLLQRFPISEAQKNIEYLSTKSTNLLAVLFNVYTQTTPNARSYILETIDQYLKITSKEDLEKTFNNVCGLLKNSMNEESSGNVNKEKKKPQLTATLLDLIICMITYLPVSSYSALFSMFSLTVNSADALIQKRAYRIITKLSELKSGSTAVAQFISDIENVMVDSASSVQTSAKAARLTAIKTIVELLPLDHLDFIVRTVAEVILSTKDVNEKSRETAFDTLICMGRKMNEPNGIIKLFQIPGYDPTTPDQSSSISEFFKIISAGLIGESQHMVSSSITGYACLVFEFKNELDSGILMDIYDTIELYLTSNSREIVKSAIGFTKVCVLGLPEELMRPKVPELLLKLLRWSHEHTGHFKAKVKHIIERLIRRFGYDYIEANFPEEDRRLLTNIRKMRNRNKRKDEEVTTGVSDVAATKGSRFMSAFDEAVYGSDEENDNGSDQEENVAGGKMKNGAKQFIVESGDNPLDLLDSQTLAHISSTRPKKFNKNQNRARFNDDAFNFDSEGKLVVKGQPKPSTNVDDPLSAVTSGINAYLEAVKSGPVRGQRNKLKFRKNGKDSDEFGDDDDGEKDSRLMRGRVNQGNKIGKHNKKGPKFKSRKKL
For B1, the binding entry with Ltv1-GFP (S. cerevisiae) [1] is “binds”; with Nob1-GFP (S. cerevisiae), “no binding”; in the experiment with Rix1-GFP (S. cerevisiae), “no binding”; in the experiment with Ssf1-GFP (S. cerevisiae) it was “no binding”; with Ltv1-GFP (S. cerevisiae) [2], “binds”.

B2: Mex67 (endogenous) (protein, UniProt Q99257 1-599)
chain: MSGFHNVGNINMMAQQQMQQNRIKISVRNWQNATMNDLINFISRNARVAVYDAHVEGPLVIGYVNSKAEAESLMKWNGVRFAGSNLKFELLDNNGASAGTSDTISFLRGVLLKRYDPQTKLLNLGALHSDPELIQKGVFSSISTQSKMFPAMMKLASTEKSLIVESVNLADNQLKDISAISTLAQTFPNLKNLCLANNQIFRFRSLEVWKNKFKDLRELLMTNNPITTDKLYRTEMLRLFPKLVVLDNVIVRDEQKLQTVYSLPMKIQQFFFENDALGQSSTDFATNFLNLWDNNREQLLNLYSPQSQFSVSVDSTIPPSTVTDSDQTPAFGYYMSSSRNISKVSSEKSIQQRLSIGQESINSIFKTLPKTKHHLQEQPNEYSMETISYPQINGFVITLHGFFEETGKPELESNKKTGKNNYQKNRRYNHGYNSTSNNKLSKKSFDRTWVIVPMNNSVIIASDLLTVRAYSTGAWKTASIAIAQPPQQQASVLPQVASMNPNITTPPQPQPSVVPGGMSIPGAPQGAMVMAPTLQLPPDVQSRLNPVQLELLNKLHLETKLNAEYTFMLAEQSNWNYEVAIKGFQSSMNGIPREAFVQF
As for B2, in the experiment with Tsr1-GFP (S. cerevisiae), the binding result is on record as “binds”.
